# T1: Recombinant Human CD200R, His-tagged (Creative Biomart CD200R1-320H) (human, UniProt Q8TD46 27-266)
# T1 construct: His-tagged; also called human CD200 receptor
# T1 sequence (looked up): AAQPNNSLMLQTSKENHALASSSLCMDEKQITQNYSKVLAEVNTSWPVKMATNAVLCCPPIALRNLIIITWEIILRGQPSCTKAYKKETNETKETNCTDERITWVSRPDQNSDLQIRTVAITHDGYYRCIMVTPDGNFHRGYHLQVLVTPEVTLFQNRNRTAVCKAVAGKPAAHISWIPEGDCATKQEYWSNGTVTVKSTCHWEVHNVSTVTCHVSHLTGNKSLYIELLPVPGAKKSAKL
# T2: Recombinant Cyno CD200R, His-tagged (Creative Biomart CD200R1-3483C) (cynomolgus, UniProt G7NZT0 27-267)
# T2 construct: His-tagged; also called cynomolgus CD200R; cynomolgus CD200R1
# T2 sequence: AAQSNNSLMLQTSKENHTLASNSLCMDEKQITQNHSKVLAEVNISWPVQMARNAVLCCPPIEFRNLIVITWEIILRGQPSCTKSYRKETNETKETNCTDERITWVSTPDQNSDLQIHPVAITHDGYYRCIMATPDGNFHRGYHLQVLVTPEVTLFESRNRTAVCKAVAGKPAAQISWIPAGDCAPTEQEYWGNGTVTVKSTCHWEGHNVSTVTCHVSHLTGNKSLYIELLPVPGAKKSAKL
# T3: human CD200R on U937-CD200R cells (full length human CD200R, lentiviral transduction) (human, UniProt Q8TD46 25-348)
# T3 construct: whole, on cells; also called CD200R-expressing U937 cells
# T3 sequence (looked up): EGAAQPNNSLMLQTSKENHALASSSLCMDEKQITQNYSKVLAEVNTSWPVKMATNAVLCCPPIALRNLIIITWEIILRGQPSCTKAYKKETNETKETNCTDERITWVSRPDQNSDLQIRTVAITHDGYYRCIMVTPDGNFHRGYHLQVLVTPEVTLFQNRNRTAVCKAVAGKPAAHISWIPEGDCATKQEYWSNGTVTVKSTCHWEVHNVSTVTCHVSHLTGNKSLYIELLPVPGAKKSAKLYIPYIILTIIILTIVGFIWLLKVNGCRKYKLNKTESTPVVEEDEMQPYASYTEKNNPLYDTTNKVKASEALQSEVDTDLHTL
# B1: ARQ-234 (mutated CD200-Fc fusion protein; human CD200 K130Y, I131Y directly fused to IgG4 Fc S228P, M428L, N434S) (Fc fusion)
# chain: QVQVVTQDEREQLYTPASLKCSLQNAQEALIVTWQKKKAVSPENMVTFSENHGVVIQPAYKDKINITQLGLQNSTITFWNITLEDEGCYMCLFNTFGFGYYSGTACLTVYVQPIVSLHYKFSEDHLNITCSATARPAPMVFWKVPRSGIENSTVTLSHPNGTTSVTSILHIKDPKNQVGKEVICQVLHLGTVTDFKQTVNKGPP[here human IgG4 Fc with changes without letters]
# notes: also called mutant CD200-Fc
# Legend:
# [1] = target: T1, Recombinant Human CD200R, His-tagged …; test: SPR (BIAcore T200), CD200-Fc captured, human CD200R in solution
# Protocol: (§1) The experiments were performed on a GE Healthcare BIAcore T200. Human, cynomolgus and mouse CD200R proteins were purchased from Creative Biomart (CD200R1-320H, CD200R1-3483C, CD200R1-3280M). All measurements were performed in duplicate.
# (§2) For human CD200 constructs: anti-human Fc (GE Healthcare) was covalently immobilized on a BIAcore CM5 sensor chip (Cytiva, BR100530) by amine coupling using a Cytiva kit (BR100839) following the manufacturer's instructions, targeting immobilization of 8,000-11,000 RU. CD200-Fc proteins were diluted to 0.5 μg/mL to 4 μg/mL in running Buffer (1×HBS-EP+pH7.4 (Cytiva BR100669), HEPES Buffered Saline pH 7.4 containing 3 mM EDTA and 0.05% v/v Surfactant P20) and flowed for 25 to 100 seconds at […] over the immobilized Anti-Human IgG Fc, with a stabilization time of 60 seconds. […]
# (§3) For mouse CD200 constructs, muCD200R-Fc (Creative Biomart CD200R1-458M) diluted to 1 μg/mL in running buffer was flowed over the immobilized Anti-Human IgG Fc, with CD200 monomers serially diluted and flowed over captured CD200R. […] Data analysis: experimental sensorgrams were analyzed in BIAevaluation software (GE Healthcare). […] Closeness of fit was determined by algorithms provided by the manufacturer in the BIAevaluation software, and data accepted if the Chi² value was less than 10% of Rₘₐₓ, and the U value was less than or equal to 15.
# [2] = target: T2, Recombinant Cyno CD200R, His-tagged …; test: SPR (BIAcore T200), CD200-Fc captured on anti-human Fc, cyno CD200R in solution, 25 C
# Protocol: as §1, §2, §3
# [3] = target: T1, Recombinant Human CD200R, His-tagged …; test: SPR (BIAcore T200), CD200-Fc captured on anti-human Fc, human CD200R in solution, 25 C
# Protocol: as §1, §2, §3
# [4] = target: T3, human CD200R on U937-CD200R cells (full …); test: flow cytometry on U937-CD200R cells, 37 °C, anti-human IgG secondary; panel 4 hours
# Protocol: (§4) Treatment with CD200-Fc proteins (50 μL) was performed starting from 10 μg/mL with 3-fold dilutions up to 10 concentrations with FACS buffer and incubated for 1-hour, 4-hours and 24-hours at 37° C. At the end of each time point, cells were collected and washed. 10 μg/mL of anti-human secondary antibody was added and incubated for 30 minutes at 4° C. Cells were washed post incubation and stained to check viability (1 μL dye per million cells per mL 1×PBS) for 20 minutes at 4° C. Cells were washed and fixed with Fixation buffer (100 μL per test) at 4° C. for 20 minutes. Post incubation, cells were washed and the pellet was re-suspended in FACS buffer (100 μL per test) for data acquisition on the flow cytometer.
# (§5) For the 24-hour time point, treatment with CD200-Fc protein was performed with cell culture media. Wash step=addition of 200 μL FACS buffer and centrifugation at 1400 RPM.
# [5] = target: T2, Recombinant Cyno CD200R, His-tagged …; test: SPR (BIAcore T200), CD200-Fc captured on anti-human Fc, cyno CD200R in solution, 25 C, mean of two runs
# Protocol: as §1
# (§6) For human CD200 constructs: anti-human Fc (GE Healthcare) was covalently immobilized on a BIAcore CM5 sensor chip (Cytiva, BR100530) by amine coupling using a Cytiva kit (BR100839) following the manufacturer's instructions, targeting immobilization of 8,000-11,000 RU. CD200-Fc proteins were diluted to 0.5 μg/mL to 4 μg/mL in running Buffer (1×HBS-EP+pH7.4 (Cytiva BR100669), HEPES Buffered Saline pH 7.4 containing 3 mM EDTA and 0.05% v/v Surfactant P20) and flowed for 25 to 100 seconds at […] over the immobilized Anti-Human IgG Fc, with a stabilization time of 60 seconds. Between 35 and 250 RUs of CD200-Fc were captured, with higher RUs used for cynomolgus CD200R binding experiments. […] Analysis temperature was 25° C. This was followed by regeneration of the surface with 30-90 second pulse of 3M MgCl₂ flowed at 30 μL/min flow rate followed by stabilization of the surface with 60 second flow of running buffer.
# (§7) For mouse CD200 constructs, muCD200R-Fc (Creative Biomart CD200R1-458M) diluted to 1 μg/mL in running buffer was flowed over the immobilized Anti-Human IgG Fc, with CD200 monomers serially diluted and flowed over captured CD200R. Other details were as above. Data analysis: experimental sensorgrams were analyzed in BIAevaluation software (GE Healthcare). The curves obtained were fitted to 1:1 Langmuir binding model by setting Rmax and RI as local parameters. Rate equations using standard parameters (e.g. ligand concentration, time) were used for iterative curve fitting. Closeness of fit was determined by algorithms provided by the manufacturer in the BIAevaluation software, and data accepted if the Chi² value was less than 10% of Rₘₐₓ, and the U value was less than or equal to 15.
# [6] = target: T1, Recombinant Human CD200R, His-tagged …; test: SPR (BIAcore T200), CD200-Fc captured on anti-human Fc, human CD200R in solution, 25 C, mean of two runs
# Protocol: as §1, §6, §7
# [7] = target: T3, human CD200R on U937-CD200R cells (full …); test: flow cytometry on U937-CD200R cells, 37 °C, cell culture media, anti-human IgG secondary; panel 24 hours
# Protocol: as §4, §5
# [8] = target: T2, Recombinant Cyno CD200R, His-tagged …; test: SPR (BIAcore), ARQ-234 captured via anti-human Fc, CynoCD200R as analyte (concentrations not given), 25 °C, 1:1 Binding fit; Run 1
# Protocol: as §1, §6, §7
# [9] = target: T2, Recombinant Cyno CD200R, His-tagged …; test: SPR (BIAcore), ARQ-234 captured via anti-human Fc, CynoCD200R as analyte (concentrations not given), 25 °C, 1:1 Binding fit; Run 2
# Protocol: as §1, §6, §7
# [10] = target: T1, Recombinant Human CD200R, His-tagged …; test: SPR (BIAcore), ARQ-234 captured via anti-human Fc, HuCD200R as analyte (5 concentrations, not given), 25 °C, 1:1 Binding fit; Run 1
# Protocol: as §1, §6, §7
# [11] = target: T1, Recombinant Human CD200R, His-tagged …; test: SPR (BIAcore), ARQ-234 captured via anti-human Fc, HuCD200R as analyte (5 concentrations, not given), 25 °C, 1:1 Binding fit; Run 2
# Protocol: as §1, §6, §7
binder,measurement,setting,value
B1,fold greater affinity than wild-type CD200-Fc (DS-155),[1],~84 fold
same,t½,[2],0.283 min
same,t½,[3],24.6 min
same,EC50 (read off the curve),[4],~0.7 µg/mL
same,Kd,[5],252 nM
same,koff,[5],0.04 s⁻¹
same,kon,[5],159000 M⁻¹ s⁻¹
same,Kd,[6],2.11 nM
same,koff,[6],0.000467 s⁻¹
same,kon,[6],222000 M⁻¹ s⁻¹
same,EC50 (read off the curve),[7],~0.6 µg/mL
same,Kd,[8],266 nM
same,koff,[8],0.0405 s⁻¹
same,kon,[8],152000 M⁻¹ s⁻¹
same,Kd,[9],238 nM
same,koff,[9],0.0395 s⁻¹
same,kon,[9],166000 M⁻¹ s⁻¹
same,Kd,[10],2.21 nM
same,koff,[10],0.000487 s⁻¹
same,kon,[10],221000 M⁻¹ s⁻¹
same,Kd,[11],2.02 nM
same,koff,[11],0.000448 s⁻¹
same,kon,[11],222000 M⁻¹ s⁻¹
